Data reported in the supplement of paper PMC7125110.
This sample is rich in variants without activity.

B1: glmS ribozyme (parent)
chain: AUAAAAGCGCCAGAACUACAGAAAUGUAGUUGACGAGGAGGAGGUUUAUCGAAUUUUCGGCGGAUGCCUCCAAA

Legend:
Details in all cases: with glucosamine-6-phosphate
glucosamine-6-phosphate [1] = variants of: B1; experiment: kcat; higher = faster cleavage; RNA array
Outline: (§1)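 E. coli RNA polymerase transcribed barcoded ribozyme variants in situ on sequenced MiSeq chips, which were tracked via a hybridised Cy3 probe at 37 °C. Tiles were imaged over ~14 h after glucosamine-6-phosphate (40 μM to 10 mM) in HEPES/KCl/Mg(OAc)2 buffer was flowed in. Normalised per-tile medians were fit to one- or two-exponential decays for kobs, and kcat and KM came from weighted Michaelis–Menten fits.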

glucosamine-6-phosphate [2] = variants of: B1; experiment: self-cleavage kobs at 640 uM GlcN6P; higher = faster cleavage; RNA array
Outline: as §1

glucosamine-6-phosphate [3] = variants of: B1; experiment: self-cleavage kobs at 2500 uM GlcN6P; higher = faster cleavage; RNA array
Outline: as §1

glucosamine-6-phosphate [4] = variants of: B1; experiment: self-cleavage kobs at 10000 uM GlcN6P; higher = faster cleavage; RNA array
Outline: as §1

glucosamine-6-phosphate [5] = variants of: B1; experiment: self-cleavage kobs at 40 uM GlcN6P; higher = faster cleavage; RNA array
Outline: as §1

glucosamine-6-phosphate [6] = variants of: B1; experiment: self-cleavage kobs at 160 uM GlcN6P; higher = faster cleavage; RNA array
Outline: as §1

| Variant | kcat (glucosamine-6-phosphate [1]) [s⁻¹] | self-cleavage kobs at 640 uM GlcN6P (glucosamine-6-phosphate [2]) [s⁻¹] | self-cleavage kobs at 2500 uM GlcN6P (glucosamine-6-phosphate [3]) [s⁻¹] | self-cleavage kobs at 10000 uM GlcN6P (glucosamine-6-phosphate [4]) [s⁻¹] | self-cleavage kobs at 40 uM GlcN6P (glucosamine-6-phosphate [5]) [s⁻¹] | self-cleavage kobs at 160 uM GlcN6P (glucosamine-6-phosphate [6]) [s⁻¹] |
| --- | --- | --- | --- | --- | --- | --- |
| A6G C10A C16U C68U | < 1e-05 |  |  |  |  |  |
| G7C G38C G41A G66U | < 1e-05 |  |  |  |  |  |
| G7C G62A | < 1e-05 | < 1e-05 | < 1e-05 | < 1e-05 |  |  |
| G7U C68U | < 1e-05 |  |  |  |  |  |
| C8G A12G | < 1e-05 |  |  | < 1e-05 | < 1e-05 |  |
| G9U | < 1e-05 | < 1e-05 |  |  | < 1e-05 | < 1e-05 |
| C10A A53U | < 1e-05 | < 1e-05 |  |  | < 1e-05 |  |
| C10A A64G | < 1e-05 |  |  |  | < 1e-05 |  |
| C10U U49G A53G C61A G63U | < 1e-05 |  |  | < 1e-05 |  |  |
| C11A A33U | < 1e-05 | < 1e-05 |  |  | < 1e-05 | < 1e-05 |
| C11G C68U | < 1e-05 |  |  |  | < 1e-05 |  |
| C11G U55A C71G | < 1e-05 |  |  | < 1e-05 | < 1e-05 |  |
| A12G A42C | < 1e-05 | < 1e-05 | < 1e-05 |  |  | < 1e-05 |
| A12U G38U | < 1e-05 |  |  |  |  |  |
| A14C G51A | < 1e-05 |  |  |  | < 1e-05 |  |
| A14G U31C G62U U65G G66A | < 1e-05 |  | < 1e-05 | < 1e-05 |  | < 1e-05 |
| A15C A48U G51C C68G | < 1e-05 | < 1e-05 |  | < 1e-05 |  |  |
| A15G G38A | < 1e-05 |  |  |  |  |  |
| A15U G37C | < 1e-05 |  |  |  |  |  |
| C16A G59U | < 1e-05 |  |  | < 1e-05 |  | < 1e-05 |
| C16A G63A | < 1e-05 |  |  | < 1e-05 |  | < 1e-05 |
| C16G A64U | < 1e-05 | < 1e-05 |  |  | < 1e-05 | < 1e-05 |
| C16G C50A | < 1e-05 |  |  |  | < 1e-05 |  |
| C16G G51U | < 1e-05 | < 1e-05 |  | < 1e-05 | < 1e-05 | < 1e-05 |
| C16G G62A | < 1e-05 |  |  | < 1e-05 | < 1e-05 |  |
| G29C G37C | < 1e-05 |  |  |  |  |  |

| Variant | kcat (glucosamine-6-phosphate [1]) [s⁻¹] | self-cleavage kobs at 640 uM GlcN6P (glucosamine-6-phosphate [2]) [s⁻¹] | self-cleavage kobs at 2500 uM GlcN6P (glucosamine-6-phosphate [3]) [s⁻¹] | self-cleavage kobs at 10000 uM GlcN6P (glucosamine-6-phosphate [4]) [s⁻¹] | self-cleavage kobs at 40 uM GlcN6P (glucosamine-6-phosphate [5]) [s⁻¹] | self-cleavage kobs at 160 uM GlcN6P (glucosamine-6-phosphate [6]) [s⁻¹] |
| --- | --- | --- | --- | --- | --- | --- |
| A33C G37C U69A | < 1e-05 |  |  |  | < 1e-05 |  |
| A33C G60C C67U C70G | < 1e-05 |  |  |  | < 1e-05 |  |
| A33U U49A | < 1e-05 |  | < 1e-05 | < 1e-05 | < 1e-05 |  |
| C34G G38C | < 1e-05 |  |  |  |  |  |
| G35A A36U | < 1e-05 |  |  |  | < 1e-05 | < 1e-05 |
| G35A G51U | < 1e-05 |  |  |  | < 1e-05 | < 1e-05 |
| A36C C71U | < 1e-05 |  |  |  |  |  |
| G37A C68G | < 1e-05 |  |  |  |  |  |
| G37C U49A | < 1e-05 |  |  | < 1e-05 |  |  |
| G37U A53U | < 1e-05 | < 1e-05 |  |  | < 1e-05 |  |
| G37U A64G | < 1e-05 |  |  |  | < 1e-05 |  |
| G38A A39C | < 1e-05 |  |  |  |  |  |
| G38A C67U | < 1e-05 |  |  | < 1e-05 |  |  |
| G38A C68G | < 1e-05 |  |  |  |  |  |
| G38A G62C | < 1e-05 |  |  | < 1e-05 | < 1e-05 |  |
| G38C C68U | < 1e-05 |  |  |  |  |  |
| G38U C71U | < 1e-05 |  |  |  |  |  |
| G38U U47A | < 1e-05 |  |  |  |  |  |
| G38U U57C | < 1e-05 |  |  | < 1e-05 | < 1e-05 |  |
| A39G U49C | < 1e-05 |  |  |  | < 1e-05 |  |
| G41C U65C | < 1e-05 | < 1e-05 |  |  | < 1e-05 |  |
| A42U A64U | < 1e-05 | < 1e-05 |  | < 1e-05 | < 1e-05 | < 1e-05 |
| G43U U46C | < 1e-05 | < 1e-05 |  | < 1e-05 |  | < 1e-05 |
| G44U U56C | < 1e-05 | < 1e-05 |  |  | < 1e-05 |  |
| U45G G51A | < 1e-05 | < 1e-05 | < 1e-05 | < 1e-05 | < 1e-05 |  |
